# From PubChem BioAssay AID662 (National Center for Advancing Translational Sciences (NCATS), 2007)
# The whole screen tested about 71,000 compounds, of which about 1,800 (2.5%) were called active. The inconclusive results got no clear call from the source; some entries with a clear call stand among them for comparison. The call rests on the fitted dose curve; in most records, active means well fitted activation curve with a large enough effect in the signal ratio, with a control signal flat (not every such curve was filed as active); inconclusive means small, poorly fitted or top-dose-only effect, or effect the other way, or a change in a side signal; inactive means flat fitted curve, though single readings scatter; the % refers to the signal ratio. A potency beside an inconclusive call is a rough fit, not a confirmed value.
# Test: Cell signaling CRE-BLA (Fsk stim); on activity change, negative = inhibition: % of control where 0% means no effect
# Settings: CHO CRE-bla reporter (cAMP response element driving beta-lactamase), forskolin EC10, beta-lactamase ratio; activity change, negative = inhibition: at 38.2 µM (top of the series) unless noted
# Summary of the method: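 Reporter-gene assay: CHO cells with beta-lactamase behind cAMP responsive elements, co-treated with compound and EC10 NKH 477 for 3 hours at 37 degrees Celsius. Activity came from the 460/530 nm CCF4 emission ratio.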
# Potency means the concentration at half of the fitted maximal effect; tags describe the fitted curve by direction and shape.
Structure (SMILES),Potency,"activity change, negative = inhibition"
Cc1nn(C)c(C)c1NC(=O)c1ccc(S(=O)(=O)N(C)C)cc1,"inconclusive: 0.02 µM [rising, full curve, poor fit]",
Cn1c(=O)c2c(nc(CN3CCN(c4ccc(F)cc4)CC3)n2Cc2ccccc2F)n(C)c1=O,,inconclusive: 18.8%
COc1ccc(S(=O)(=O)N2CCN(C(=O)CCC3CCCC3)CC2)cc1,,inconclusive: 6.4%
COCCn1c(=O)c(-c2ccc(Cl)cc2)nc2cnc(Oc3cccc(Cl)c3)nc21,,inconclusive: 21.2%
c1ccc(-c2cc(-c3nc(-c4ccccn4)no3)c3ccccc3n2)cc1,active: 3.16 µM,
CCNc1ncc2nc(-c3ccc(OC)cc3)c(=O)n(CCOC)c2n1,"inconclusive: 0.398 µM [rising, full curve, poor fit]",
CCOc1cc(-c2noc(N)c2C(=O)OC)cc(OCC)c1OCC,"inconclusive: 10 µM [rising, partial curve]",
CC1(C)CC(=O)c2cc(C(=O)N3CCCCC3)c(=O)n(-c3ccc(Cl)cc3)c2C1,,inactive: -12.1%
CCOC(=O)C1CCCN(C(=O)c2cc(-c3ccc(C)cc3)on2)C1 (stereo not drawn),,inconclusive: 2.87%
CC(C)C(c1nnnn1Cc1ccco1)N1CCN(c2cccc(Cl)c2)CC1 (stereo not drawn),,inconclusive: -12.7%
CCOc1ccccc1NC(=O)N1C2CCCC1CC(NC(=O)C1CC1)C2 (stereo not drawn),"inconclusive: 10 µM [rising, single point]",
COc1ccc2nc3oc(C(=O)NCc4cccs4)cc3cc2c1,,inconclusive: 1.83%
COc1ccccc1-c1nnc(N(C)C(=O)C2CCCO2)s1 (stereo not drawn),"inconclusive: 1.58 µM [rising, partial curve, poor fit]",
CCCC1C2CN(C(C)C)CC=C2C(C#N)=C(N)C1(C#N)C#N (stereo not drawn),,inactive: 9.87%
CCOc1ccc(NC(=O)CSc2nc3cccnc3n2CC)cc1,"inconclusive: 12.6 µM [rising, partial curve]",
Cc1sc(NC(=O)CSc2nc(N)n(CC(=O)c3ccccc3)n2)c(C#N)c1C,active: 5.01 µM,
CCn1c(N2CCC(Cc3ccccc3)CC2)nc2c1c(=O)[nH]c(=O)n2C,"inconclusive: 3.98 µM [rising, single point]",
O=C(O)[C@@H]1CCCN[C@H]1C(=O)O,,inactive: -5.83%
COc1ncc2nc(-c3cn(C)c4ccccc34)c(=O)n(C[C@H]3CCCO3)c2n1,active: 1.58 µM,
CCn1c(SCC(=O)c2ccc(CNC(C)=O)o2)nnc1-c1cccs1,,inconclusive: -22.3%
CCN1CCc2nc(SCC(=O)Nc3ccc(OC)cc3)c(C#N)cc2C1,,inactive: 6.67%
Cc1cc(C(=O)OCC(=O)c2ccc(Br)s2)no1,"inconclusive: 5.01 µM [falling, single point]",
O=C(O)CCNc1cc2ccccc2cc1C(=O)O,,inactive: -3.2%
O=C(Nc1sc2c(c1C(=O)NC1CC1)CCCCCC2)c1ccco1,"inconclusive: 10 µM [rising, single point]",
COc1ccccc1C1(O)CC2CCC(C1)N2S(=O)(=O)c1ccc(C(C)=O)cc1 (stereo not drawn),,inactive: 2.89%
CCCn1c(SCC(=O)N2CCc3ccccc3C2)nc2c1c(=O)n(C)c(=O)n2C,"inconclusive: 10 µM [rising, partial curve]",
CS(=O)(=O)N1CCN(c2ccccc2NC(=O)CSc2ccc(Cl)cc2)CC1,,inconclusive: 4.18%

Structure (SMILES),Potency,"activity change, negative = inhibition"
COC(=O)C(CC(C)C)NC(=O)c1cc(OC)c(OC)c(OC)c1 (stereo not drawn),,inconclusive: 27.8%
Cc1nc2nc(C)c(CCC(=O)N3CCN(c4ccccn4)CC3)c(C)n2n1,"inconclusive: 6.31 µM [rising, partial curve]",
O=C(CN1CCCC1)Nc1ccc(Oc2ccc(NC(=O)CN3CCCC3)cc2)cc1,,inactive: 2.77%
O=C(c1ccco1)N1CCN(c2ncnc3c(-c4ccccc4)nsc23)CC1,,inactive: 3.96%
Cc1ccc(S(=O)(=O)C(C#N)c2nc3ccccc3nc2N2CC(C)OC(C)C2)cc1C (stereo not drawn),active: 3.98 µM,
Cc1cc(NC(=O)c2cccc(S(=O)(=O)N3CCCC3)c2)no1,,inconclusive: -7.39%
CCCc1cc2c(=O)c(-c3ccccn3)c(C)oc2cc1O,,inactive: 9.63%
O=C1CC(O)(C(F)F)Oc2ccc3ccccc3c21 (stereo not drawn),,inconclusive: -21.2%
CCN(C(=O)c1cc2cc(OC)ccc2oc1=O)c1ccccc1,,inconclusive: 6.71%
CN1CCc2cc(NC(=O)Nc3cccnc3)ccc21,,inconclusive: -11.1%
CCOc1ccc(OCC)c(NC(=O)CSc2nc3c(c(=O)n(C)c(=O)n3C)n2C(C)C)c1,active: 3.98 µM,
Cc1cccc(Cn2c(N(C)CCO)nc3c2c(=O)[nH]c(=O)n3C)c1,,inconclusive: 29.6%
COc1ccc(C(=O)Nc2c3c(nn2-c2cccc(Cl)c2)CS(=O)C3)cc1 (stereo not drawn),,inactive: -3.27%
CNC(=O)N(C1=NCC(C)S1)c1ccc(F)cc1F (stereo not drawn),,inconclusive: 25%
COc1cc(/C=C(\C#N)C(=O)c2ccc(O)c(O)c2)cc(I)c1O,,inactive: -7.06%
COc1ccc(OCc2nnc3n2N=C(c2ccc(OC)cc2)CS3)cc1,active: 3.98 µM,
CS(=O)(=O)c1ccc(CNC(=O)[C@@H]2C[C@H]2[C@@H](NP(=O)(c2ccccc2)c2ccccc2)c2ccccc2)cc1,,inactive: -15.3%
COc1ccc(NC(=O)c2ccco2)cc1NC(=O)c1cccs1,,inconclusive: 13.6%
CC(C)CCn1c(N2CCN(Cc3ccccc3)CC2)nc2c1c(=O)[nH]c(=O)n2C,,inactive: 3.97%
Cn1cccc1C(=O)N1CCN(c2cccc(C(F)(F)F)c2)CC1,,inconclusive: -16.7%
COc1ccc(-c2csc3c2[N+]2=CCC=C2C3=O)cc1,active: 3.16 µM,
COc1cc(NC(=O)c2ccccc2)c(OC)cc1NC(=O)CN1CCOCC1,"inconclusive: 10 µM [rising, partial curve]",
COc1ccc(C2=NOC(C(=O)NC(C)(C)C)C2)cc1 (stereo not drawn),,inconclusive: -2.4%
Cc1cccc2c(=O)cc(C)n(CC(=O)N3CCCCC3)c12,,inconclusive: 6.89%
CCCCSc1nnc(-c2ccc(C)cc2)o1,,inconclusive: -2.14%
O=C(NCCN1CCOCC1)c1cccc(Cl)c1,,inconclusive: -6.43%
